# Data as given in the supplement of paper PMC12645437, “Orthogonal IMiD-Degron Pairs Induce Selective Protein Degradation in Cells” (ACS Chemical Biology, 2025).
# The other results are listed elsewhere or left out.
# Biological target: no compound (DMSO)
# Test: log2 fold change of degron read counts, EGFP-low vs EGFP+ sorted cells; higher = lower degron-EGFP level without compound (poor expression or instability)
# Settings: compound: DMSO control; 18 h
# 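Also: jurkat cells carrying a lentiviral library of mutant zinc finger degrons fused to EGFP plus mCherry, mCherry+ cells FACS sorted, degron abundance counted by next-generation sequencing.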
row,Sequence,log2 fold change of degron read counts
1,FVCPICGRGFTQKGNLLRHIKL,-0.236
2,FACPICGHVFTQKGNLLRHIKL,-0.439
3,FWCDQCGANFTQKGNLLRHIKL,-0.657
4,FLCDVCGAEFTQKGNLLRHIKL,-2.36
5,FYCNQCGHDFTQKGNLLRHIKL,-0.601
6,FQCPQCGAKFTQKGNLLRHIKL,-0.945
7,FDCNVCGAQFTQKGNLLRHIKL,-0.933
8,FLCDICGAAFTQKGNLLRHIKL,-1.64
9,FNCPICGAGFTQKGNLLRHIKL,-0.387
10,FLCDVCGAVFTQKGNLLRHIKL,-1.95
11,FMCNICGAFFTQKGNLLRHIKL,0.162
12,FCCNQCGARFTQKGNLLRHIKL,-0.722
13,FRCPICGHLFTQKGNLLRHIKL,0.0774
14,LMCPICGFNCTQKGNLLRHIKL,0.597
15,LCCPICGFMCTQKGNLLRHIKL,0.87
16,FSCEICGHYFTQKGNLLRHIKL,-0.624
17,FMCDICGAFFTQKGNLLRHIKL,-1.13
18,FCCNQCGRRFTQKGNLLRHIKL,-0.198
19,FYCEICGHKFTQKGNLLRHIKL,-1.26
20,FDCEICGHDFTQKGNLLRHIKL,-0.838
21,LCCNQCGFHCTQKGNLLRHIKL,0.726
22,FDCPVCGAAFTQKGNLLRHIKL,-1.02
23,LICPICGFVCTQKGNLLRHIKL,1.24
24,FYCDICGATFTQKGNLLRHIKL,-1.03
25,FLCEQCGASFTQKGNLLRHIKL,-1.66

row,Sequence,log2 fold change of degron read counts
1,FYCNVCGASFTQKGNLLRHIKL,0.453
2,FKCPICGAIFTQKGNLLRHIKL,-0.582
3,FICDVCGANFTQKGNLLRHIKL,-2.12
4,FSCEQCGAMFTQKGNLLRHIKL,-1.38
5,FDCNQCGRHFTQKGNLLRHIKL,0.537
6,FQCEICGRHFTQKGNLLRHIKL,-0.654
7,FKCNVCGATFTQKGNLLRHIKL,-1.21
8,FGCNVCGAWFTQKGNLLRHIKL,0.351
9,FRCEVCGAVFTQKGNLLRHIKL,-2.82
10,FACDQCGADFTQKGNLLRHIKL,-0.904
11,FMCEICGRYFTQKGNLLRHIKL,-0.793
12,FGCEICGHKFTQKGNLLRHIKL,-0.472
13,FCCEICGHQFTQKGNLLRHIKL,-0.683
14,FGCEICGAFFTQKGNLLRHIKL,-0.48
15,FLCDQCGAHFTQKGNLLRHIKL,-0.874
16,FMCEICGRKFTQKGNLLRHIKL,-0.688
17,FECDICGANFTQKGNLLRHIKL,-2.45
18,FKCNQCGHDFTQKGNLLRHIKL,-1.68
19,FKCPICGRFFTQKGNLLRHIKL,0.0714
20,LLCEICGFMCTQKGNLLRHIKL,0.0782
21,FGCEICGRCFTQKGNLLRHIKL,-0.699
22,FKCEVCGAPFTQKGNLLRHIKL,-0.417
23,FRCPICGASFTQKGNLLRHIKL,-0.195
24,FDCPICGRNFTQKGNLLRHIKL,-0.669
25,FICPICGALFTQKGNLLRHIKL,0.392
